Test results taken from patent US20210238308A1 (Chugai, published 2021).

B1: MRAH-G1d/MRAL-KT0 H433F (antibody, human IgG1, kappa)
heavy: QVQLQESGPGLVRPSQTLSLTCTVSGYSITSDHAWSWVRQPPGRGLEWIGYISYSGITTYNPSLKSRVTMLRDTSKNQFSLRLSSVTAADTAVYYCARSLARTTAMDYWGQGSLVTVSS[human IgG1 constant region with H433F (EU numbers) omitted here]
light: DIQMTQSPSSLSASVGDRVTITCRASQDISSYLNWYQQKPGKAPKLLIYYTSRLHSGVPSRFSGSGSGTDFTFTISSLQPEDIATYYCQQGNTLPYTFGQGTKVEIKRTVAAPSVFIFPPSDEQLKSGTASVVCLLNNFYPREAKVQWKVDNALQSGNSQESVTEQDSKDSTYSLSSTLTLSKADYEKHKVYACEVTHQGLSSPVTKSFNRGEC
notes: copies: 2 + 2
B2: MRAH-G1d/MRAL-KT0 H433G (antibody, human IgG1, kappa)
heavy: QVQLQESGPGLVRPSQTLSLTCTVSGYSITSDHAWSWVRQPPGRGLEWIGYISYSGITTYNPSLKSRVTMLRDTSKNQFSLRLSSVTAADTAVYYCARSLARTTAMDYWGQGSLVTVSS[human IgG1 constant region with H433G (EU numbers) omitted here]
light: B1 light
notes: copies: 2 + 2
B3: MRAH-G1d/MRAL-KT0 H433I (antibody, human IgG1, kappa)
heavy: QVQLQESGPGLVRPSQTLSLTCTVSGYSITSDHAWSWVRQPPGRGLEWIGYISYSGITTYNPSLKSRVTMLRDTSKNQFSLRLSSVTAADTAVYYCARSLARTTAMDYWGQGSLVTVSS[human IgG1 constant region with H433I (EU numbers) omitted here]
light: B1 light
notes: copies: 2 + 2
B4: MRAH-G1d/MRAL-KT0 H433L (antibody, human IgG1, kappa)
heavy: QVQLQESGPGLVRPSQTLSLTCTVSGYSITSDHAWSWVRQPPGRGLEWIGYISYSGITTYNPSLKSRVTMLRDTSKNQFSLRLSSVTAADTAVYYCARSLARTTAMDYWGQGSLVTVSS[human IgG1 constant region with H433L (EU numbers) omitted here]
light: B1 light
notes: copies: 2 + 2
B5: MRAH-G1d/MRAL-KT0 H433M (antibody, human IgG1, kappa)
heavy: QVQLQESGPGLVRPSQTLSLTCTVSGYSITSDHAWSWVRQPPGRGLEWIGYISYSGITTYNPSLKSRVTMLRDTSKNQFSLRLSSVTAADTAVYYCARSLARTTAMDYWGQGSLVTVSS[human IgG1 constant region with H433M (EU numbers) omitted here]
light: B1 light
notes: copies: 2 + 2
B6: MRAH-G1d/MRAL-KT0 H433N (antibody, human IgG1, kappa)
heavy: QVQLQESGPGLVRPSQTLSLTCTVSGYSITSDHAWSWVRQPPGRGLEWIGYISYSGITTYNPSLKSRVTMLRDTSKNQFSLRLSSVTAADTAVYYCARSLARTTAMDYWGQGSLVTVSS[human IgG1 constant region with H433N (EU numbers) omitted here]
light: B1 light
notes: copies: 2 + 2
B7: MRAH-G1d/MRAL-KT0 H433P (antibody, human IgG1, kappa)
heavy: QVQLQESGPGLVRPSQTLSLTCTVSGYSITSDHAWSWVRQPPGRGLEWIGYISYSGITTYNPSLKSRVTMLRDTSKNQFSLRLSSVTAADTAVYYCARSLARTTAMDYWGQGSLVTVSS[human IgG1 constant region with H433P (EU numbers) omitted here]
light: B1 light
notes: copies: 2 + 2
B8: MRAH-G1d/MRAL-KT0 H433Q (antibody, human IgG1, kappa)
heavy: QVQLQESGPGLVRPSQTLSLTCTVSGYSITSDHAWSWVRQPPGRGLEWIGYISYSGITTYNPSLKSRVTMLRDTSKNQFSLRLSSVTAADTAVYYCARSLARTTAMDYWGQGSLVTVSS[human IgG1 constant region with H433Q (EU numbers) omitted here]
light: B1 light
notes: copies: 2 + 2
B9: MRAH-G1d/MRAL-KT0 H433T (antibody, human IgG1, kappa)
heavy: QVQLQESGPGLVRPSQTLSLTCTVSGYSITSDHAWSWVRQPPGRGLEWIGYISYSGITTYNPSLKSRVTMLRDTSKNQFSLRLSSVTAADTAVYYCARSLARTTAMDYWGQGSLVTVSS[human IgG1 constant region with H433T (EU numbers) omitted here]
light: B1 light
notes: copies: 2 + 2
B10: MRAH-G1d/MRAL-KT0 H433V (antibody, human IgG1, kappa)
heavy: QVQLQESGPGLVRPSQTLSLTCTVSGYSITSDHAWSWVRQPPGRGLEWIGYISYSGITTYNPSLKSRVTMLRDTSKNQFSLRLSSVTAADTAVYYCARSLARTTAMDYWGQGSLVTVSS[human IgG1 constant region with H433V (EU numbers) omitted here]
light: B1 light
notes: copies: 2 + 2
B11: MRAH-G1d/MRAL-KT0 H433W (antibody, human IgG1, kappa)
heavy: QVQLQESGPGLVRPSQTLSLTCTVSGYSITSDHAWSWVRQPPGRGLEWIGYISYSGITTYNPSLKSRVTMLRDTSKNQFSLRLSSVTAADTAVYYCARSLARTTAMDYWGQGSLVTVSS[human IgG1 constant region with H433W (EU numbers) omitted here]
light: B1 light
notes: copies: 2 + 2
B12: MRAH-G1d/MRAL-KT0 H433Y (antibody, human IgG1, kappa)
heavy: QVQLQESGPGLVRPSQTLSLTCTVSGYSITSDHAWSWVRQPPGRGLEWIGYISYSGITTYNPSLKSRVTMLRDTSKNQFSLRLSSVTAADTAVYYCARSLARTTAMDYWGQGSLVTVSS[human IgG1 constant region with H433Y (EU numbers) omitted here]
light: B1 light
notes: copies: 2 + 2
B13: MRAH-G1d/MRAL-KT0 H435A (antibody, human IgG1, kappa)
heavy: QVQLQESGPGLVRPSQTLSLTCTVSGYSITSDHAWSWVRQPPGRGLEWIGYISYSGITTYNPSLKSRVTMLRDTSKNQFSLRLSSVTAADTAVYYCARSLARTTAMDYWGQGSLVTVSS[human IgG1 constant region with H435A (EU numbers) omitted here]
light: B1 light
notes: copies: 2 + 2

Molecular target: T1, human FcRn (human, UniProt P55899 in part; P61769 in part, limits assumed)
T1 construct: also called hFcRn
Assay: SPR, Protein L capture

hFcRn binding level ratio (variant/control antibody)	Binder
0.23	B1
0.87	B2
0.56	B3
0.63	B4
0.93	B5
0.77	B6
1.2	B7
0.96	B8
0.57	B9
0.62	B10
0.36	B11
0.13	B12
0.01	B13

Molecular target: T2, PRYSPRY domain of human TRIM21 with N-terminal 6xHis tag (human)
T2 construct: Expressed in E. coli; also called hTRIM21; human TRIM21.PRYSPRY
T2 chain: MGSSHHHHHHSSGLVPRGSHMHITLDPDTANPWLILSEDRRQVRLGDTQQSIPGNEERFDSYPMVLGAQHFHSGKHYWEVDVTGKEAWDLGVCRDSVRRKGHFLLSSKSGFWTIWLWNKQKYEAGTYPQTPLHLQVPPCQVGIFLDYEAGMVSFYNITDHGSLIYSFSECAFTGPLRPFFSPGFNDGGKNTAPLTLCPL
Assay: SPR, Protein L capture

hTRIM21 binding level ratio (variant/control antibody)	Binder
-0.06	B1
0.015	B2
-0.002	B3
-0.016	B4
-0.004	B5
-0.071	B6
-0.019	B7
-0.005	B8
-0.007	B9
-0.101	B10
-0.027	B11
-0.008	B12
-0.022	B13

Molecular target: T3, PRYSPRY domain of mouse TRIM21 with N-terminal 6xHis tag (mouse)
T3 construct: Expressed in E. coli; also called mTRIM21; mouse TRIM21.PRYSPRY
T3 chain: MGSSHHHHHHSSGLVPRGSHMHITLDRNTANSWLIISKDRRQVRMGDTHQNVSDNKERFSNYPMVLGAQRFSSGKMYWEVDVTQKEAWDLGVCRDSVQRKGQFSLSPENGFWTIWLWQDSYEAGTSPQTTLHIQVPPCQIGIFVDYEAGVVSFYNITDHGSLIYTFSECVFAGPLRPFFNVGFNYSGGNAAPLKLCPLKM
Assay: SPR, Protein L capture

mTRIM21 binding level ratio (variant/control antibody)	Binder
-0.271	B1
-0.15	B2
-0.097	B3
-0.18	B4
-0.1	B5
-0.303	B6
-0.204	B7
-0.127	B8
-0.116	B9
-0.403	B10
-0.218	B11
-0.138	B12
1.62	B13
